Variants at the floor of the assay are shown more often than the library holds them.
B1: TPR 5TU (parent)
chain: GGAUCUUCUCGAUCUAACAAAAAAGACAAAUCUGCCACAAAGCUUGAGAGCAUCUUCGGAUGCAGAGGCGGCAGCCUUCGGUGGCGCGAUAGCGCCAACGUUCUCAACUAUGACACGCAAAACGCGUGCUCCGUUGAAUGGAGUUUAUCAUG

Variants of: B1
Assay: polymerase ribozyme fitness, log enrichment relative to wild type (log ratio); higher = more active; in vitro selection for triplet polymerase activity
Summary of the method: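 One round of in vitro selection, in triplicate, was applied to PCR-built, transcribed mutant libraries of each subunit of a heterodimeric triplet polymerase ribozyme. The steps were annealing with a biotinylated primer, partner subunit and triplets, incubation frozen at −7 °C, gel excision of extended constructs, streptavidin-bead capture and RT-PCR. Fitness is the logarithm, base 2, of genotype enrichment over wild-type enrichment from inverse-variance-weighted replicate averages of Illumina-sequenced inputs and outputs, keeping genotypes with ≥10 input reads and ≥1 read per output.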

Variant | polymerase ribozyme fitness (log ratio)
G59C C69A C116G C125U | ≤ -4.2
G59C C76U A91C C95A C129A | ≤ -4.2
G59C C85G G136A C149G | ≤ -4.2
G59C C93A C95A | -4.05
G59C C96A C114U G140C | ≤ -4.2
G59C C99G G141U | -1.13
G59C C99U A150C | ≤ -4.2
G59C G68A C96A C105A C125U U130G | ≤ -4.2
G59C G71A G100A C129A | ≤ -4.2
G59C G80A C93A | -3.86
G59C G81C G84C | ≤ -4.2
G59C G84A | -0.218
G59C G84A G112U C131A U134C | ≤ -4.2
G59C G86C C96U A121U U134A | ≤ -4.2
G59C G86U C87A A91G A98G A110U C118G | ≤ -4.2
G59C G86U C95U | -2.13
G59C G88C A91C G124U | ≤ -4.2
G59C G92A | -2.89
G59C G94A U101G A113C | ≤ -4.2
G59C U61A A66C U101G C114U | ≤ -4.2
G59C U78C G83A | -0.666
G59C U82G C85A U102G | -4.09
G59C U102G C132U U139G | ≤ -4.2
G59U A60U C79U G81A C105U A107C C118G A150G | ≤ -4.2

Variant | polymerase ribozyme fitness (log ratio)
G59U A89U C95G | -2.27
G59U A91U | -4.12
G59U A91U C103A C125A G136A | ≤ -4.2
G59U A98G | 0.162
G59U C75U U78C C87A U101A | ≤ -4.2
G59U C79A G94U A119U U127G | ≤ -4.2
G59U C79G A91C A110U C149G G152U | ≤ -4.2
G59U C85G C93A | ≤ -4.2
G59U C93G A122U U134G | ≤ -4.2
G59U C96U A142G | -1.66
G59U C99U U104G G128U U134A G136U A138G | ≤ -4.2
G59U G67U A89G A137U A138U | ≤ -4.2
G59U G68C C75U C85G C118G | ≤ -4.2
G59U G68C G84U C105A G124A G133C A142C | ≤ -4.2
G59U G68U A137G | ≤ -4.2
G59U G83A A110C U145A | ≤ -4.2
G59U G86A A147U | -0.0426
G59U G86A C103A | ≤ -4.2
G59U G88A U90G G94A A122G A137G A147C | ≤ -4.2
G59U G88C C116G | -3.85
G59U U78G C79A C87U U109G A110U | -3.99
G59U U102G | -3.26
G59U U148G | -3.83
A60C A66C C75G | ≤ -4.2

Variant | polymerase ribozyme fitness (log ratio)
A60C A66U C76U G84U A91C C105U U144C | ≤ -4.2
A60C A73G C93U | ≤ -4.2
A60C A91C C116U | ≤ -4.2
A60C C76G | ≤ -4.2
A60C C76U A107C | ≤ -4.2
A60C C93A | -3.64
A60C C93A U130A A138C | ≤ -4.2
A60C C105G | -3.44
A60C G62C C96U A138G U139A | ≤ -4.2
A60C G74U U78G G81U U90C A120C | ≤ -4.2
A60C G86C G88A C105G | ≤ -4.2
A60C G100U C103G U109C G128A U134C | ≤ -4.2
A60G A66C A107G G136C | ≤ -4.2
A60G A66G G83U G117A | ≤ -4.2
A60G A73G G92U | 0.661
A60G A73U G80U G88U A97C C118U | ≤ -4.2
A60G A91C C95U A110U C114U C118G A150U | ≤ -4.2
A60G C69A C108G C125G | ≤ -4.2
A60G C69G G80U G84U A106G U109A G133U G140A A150C | ≤ -4.2
A60G C75A U90G C108G U135A A150U | ≤ -4.2
A60G C75G | -2.36
A60G C75G G81C G94U C103A A107U U111G | ≤ -4.2
A60G C76G U78G U82C A142G | ≤ -4.2
A60G C85G G94A | -0.0985

Variant | polymerase ribozyme fitness (log ratio)
A60G C87U U101A | -0.517
A60G C93A A97C A110U C123U U130G G133A | ≤ -4.2
A60G C99U A150C | -4.02
A60G C116U | 0.141
A60G G67C | ≤ -4.2
A60G G68C C85A A106U A122U G128A A147U | ≤ -4.2
A60G G68U G80C U139A | ≤ -4.2
A60G G70A C87U G94U C96U | ≤ -4.2
A60G G71A C95G C96U G128A U148A | ≤ -4.2
A60G G71A G141U | ≤ -4.2
A60G G84A C87U A97U C114A G152U | ≤ -4.2
A60G G92A C96U A121C | -2.75
A60G G94U A137G U148A | ≤ -4.2
A60G G100A G136U | ≤ -4.2
A60G G117A | 0.434
A60G U61G C76U U102G A106C A147U | ≤ -4.2
A60G U61G G81C A122C A142U | -3.02
A60G U77G G84U A91U | ≤ -4.2
A60G U78G C79U G88A A142G | ≤ -4.2
A60G U134G G143U | -3.39
A60G U139C G141C U144A | -4.04
A60U A73C C93G U139A | ≤ -4.2
A60U A89C | -0.611
A60U A89C A142U | -2.09

Variant | polymerase ribozyme fitness (log ratio)
A60U A89G G94A C96U C114U A121G U148G | ≤ -4.2
A60U C75A C76U G84A A89G A120U | ≤ -4.2
A60U C76U G86A G141A | -3.96
A60U C79U C99U | ≤ -4.2
A60U C85G C96U C105U | ≤ -4.2
A60U C85U U148C | -3.17
A60U C96U C116A G124A | ≤ -4.2
A60U C96U G126U G141C | ≤ -4.2
A60U C99U C118U | -2.07
A60U G71U C87G | ≤ -4.2
A60U G83C U109G A137C | ≤ -4.2
U61A A66U U82C G92C C95G | ≤ -4.2
U61A A73G | -1.42
U61A A97C | -1.48
U61A A122G G140C | ≤ -4.2
U61A C72U | -3.66
U61A C72U G83C U102G G136C | ≤ -4.2
U61A C75U C125A G128A A142U A147G | ≤ -4.2
U61A C76U C85U C96A A115G | ≤ -4.2
U61A C85A | -3.12
U61A C85G | ≤ -4.2
U61A C85U A121U U148A U151A | ≤ -4.2
U61A C85U C87A C118G U134A | ≤ -4.2
U61A C85U C108G C118G A142C U144C | ≤ -4.2

Variant | polymerase ribozyme fitness (log ratio)
U61A C87U | -2.83
U61A C93G U139A | ≤ -4.2
U61A C95U C125G A142C | ≤ -4.2
U61A C105U | -1.02
U61A C108G C116A U139A | ≤ -4.2
U61A C123U U144C U148C | ≤ -4.2
U61A C125A | -2.73
U61A G67A C76A G81A C85A | ≤ -4.2
U61A G68A | ≤ -4.2
U61A G68C C79A U145G | ≤ -4.2
U61A G68U A107G U145C A147C | ≤ -4.2
U61A G71A C75U A137U G152C | ≤ -4.2
U61A G86A A97U C99G A113U G152U | ≤ -4.2
U61A G86C C95A | ≤ -4.2
U61A G94U C108U A120U G136A U151C | ≤ -4.2
U61A U77A C95U A97C U139A A150G | ≤ -4.2
U61A U78A C95U C123A U146A | ≤ -4.2
U61A U90G U139C | ≤ -4.2
U61A U101G | -1.11
U61A U104A C125U A147U | ≤ -4.2
U61A U135A G141C U148G C149G | ≤ -4.2
U61A U144C | -2.19
U61C A64G | ≤ -4.2
U61C A73U A91U | ≤ -4.2

Variant | polymerase ribozyme fitness (log ratio)
U61C A98U C103G A115G C131U | ≤ -4.2
U61C C69U G70U G86U A107C | ≤ -4.2
U61C C93A | ≤ -4.2
U61C G80C C85U C99U U146A | ≤ -4.2
U61C G83C A119C | ≤ -4.2
U61C G94A G141A C149A | ≤ -4.2
U61C U104G G126C | -2.04
U61C U148C | ≤ -4.2
U61G A64C C75G C93U | ≤ -4.2
U61G A66C G133C | ≤ -4.2
U61G A107U C132A U148C | ≤ -4.2
U61G A122C | -1.51
U61G C69G U82A C95A A122U U148C | ≤ -4.2
U61G C75U U144C | -1.52
U61G C85A G141A | -1.58
U61G C87A A150G | ≤ -4.2
U61G G67C U77C C85A C93A G136A A138U G141U | ≤ -4.2
U61G G68A U78G U127A | ≤ -4.2
U61G G74C C79U G88C U102G C105U U111G G126A U144A | ≤ -4.2
U61G G86A | -2.45
U61G G92A | ≤ -4.2
U61G G136C | -2.91
U61G U90A G126U | ≤ -4.2

Reference: the RNAGym collection of RNA variant scans (doi:10.1073/pnas.2313332121)
